The source of these data is the supplement of paper PMC11417369.

± gives the standard deviation of the averaged measurements. The list shows a part of the results.

The assay deals with PfAP2-I AP2 domain 3 (GST-tagged). Nature of the assay: gcPBM binding intensity (ln(normalized median fluorescence intensity)); higher = stronger DNA binding. In outline: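 GST-tagged P. falciparum DNA-binding domains, expressed in E. coli (about 25 μg on average), were applied for 1 h to an Agilent 4 × 180k array of primer-extended double-stranded 36-bp intergenic genomic probes plus negative controls. The binding buffer was 1× PBS with 1% milk, 0.2 mg/ml BSA, 0.5% salmon testes DNA and 0.03% Triton X-100. Bound protein was detected with Alexa488 anti-GST antibody and scanned at 488 nm. Binding intensity is the highest Masliner-normalised natural-log median intensity across replicate spots of either probe orientation.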
For the sequence “TGGAAAAATAGGCACACACACATATATACCTATATA [CACACA_site4843]”, the “gcPBM binding intensity (ln)” value turned out to be 8.06 ± 0.3.

With “AATATTATAAATGATACACACTTAAAATACACCCAC [CACACA_site5498]”, the “gcPBM binding intensity (ln)” value came out at 8.65.

With “TGAATATTTACTTTAGCACACAATTTGTATTTGATT [CACACA_site960]”, the “gcPBM binding intensity (ln)” value turned out to be 8 ± 0.8.

For the sequence “AATATATTTTAATACACACACACATATATATATATA [CACACA_site5969]”, the “gcPBM binding intensity (ln)” value was 9.59 ± 0.42.

On to “ATATGTATATAAATGTGTACTTATAAATATATATAT [XGTACX_site3250]”, for which the “gcPBM binding intensity (ln)” value turned out to be 8.8 ± 0.15.

As to “TTTTTTTTAAATATCACACACATATAACATATTCTA [CACACA_site7687]”, the “gcPBM binding intensity (ln)” value stood at 7.74 ± 0.46.

Consider “TATAAATAAATGCGTACACACTAATAAAAAAAAAAA [CACACA_site4630]”, for which the “gcPBM binding intensity (ln)” value stood at 8.37 ± 0.18.

“GAAATAGAGAAACACACACACATATATTTATGTATT [CACACA_site3967]”: the “gcPBM binding intensity (ln)” value worked out at 7.51 ± 0.47.

Regarding “ATAAAAATAAAAAGATGTACGTATTTTTTTTTTTTT [XGTACX_site5329]”, the “gcPBM binding intensity (ln)” value was 8.13 ± 0.33.

With “CATTATTATGATAGTTGTACAATTTTTATAAAAAAT [XGTACX_site4411]”, the “gcPBM binding intensity (ln)” value came to 7.93 ± 0.35.

In the case of “ATATTATTATAAACTTCACACATTTTATGGGTTTTT [CACACA_site4631]”, the “gcPBM binding intensity (ln)” value was found to be 7.49 ± 0.61.

For “TATATTATTTATATTTGTACACAGCGATATGAAATA [XGTACX_site987]”, the “gcPBM binding intensity (ln)” value was found to be 7.93 ± 0.36.

As to “TACAATTTAAAACACACACACAATAATACATATATA [CACACA_site1251]”, the “gcPBM binding intensity (ln)” value amounted to 7.92 ± 0.4.

Regarding “CATAAGCACAAGCACAAGCACACATTTATATATATA [CACACA_site882]”, the “gcPBM binding intensity (ln)” value was determined as 8.72 ± 0.39.

Take “CGCATATTTTATGTTTGTACTCATATGAATATCATA [XGTACX_site4717]”: the “gcPBM binding intensity (ln)” value came out at 7.58 ± 0.36.

Take “TTGTATATATTAAATTGTACTTATTTTTTGTATATA [XGTACX_site3251]”: the “gcPBM binding intensity (ln)” value was found to be 7.59 ± 0.28.

On to “GGATAAAATGCTACGAGTACATAAGCATTTTTCCCT [XGTACX_site7796]”, for which the “gcPBM binding intensity (ln)” value was determined as 8.04 ± 0.36.

In the case of “TATAAACATATAAAAAGTACATACCAATTAATATTA [XGTACX_site967]”, the “gcPBM binding intensity (ln)” value turned out to be 7.54 ± 0.45.

In the case of “AATATATTCATCATATCAATATTGTCAAGCAAACGA [TGCATGCA_negctrl_site37]”, the “gcPBM binding intensity (ln)” value amounted to 7.58 ± 0.59.

As for “TATTCTGTGTATAAAAGTACAAATATTTAAATGTAT [XGTACX_site8234]”, the “gcPBM binding intensity (ln)” value was determined as 7.92 ± 0.41.

On to “TCTTTTAAAAATATAAAAAGGAATATATAAAAATGT [CACACA_negctrl_site332]”, for which the “gcPBM binding intensity (ln)” value turned out to be 8.22 ± 0.3.

In the case of “GAATTTATTTTATTTTCACACACAAAAATAAATATC [CACACA_site8762]”, the “gcPBM binding intensity (ln)” value is 7.97 ± 0.53.

As for “AATAAATAGATATATACACACATATATGTGTACATA [CACACA_site7476]”, the “gcPBM binding intensity (ln)” value was determined as 7.83 ± 0.23.

On to “TTATCCATTTTAATCACACATACTTTACTTTGGAAC [CACACA_site5584]”, for which the “gcPBM binding intensity (ln)” value was 7.68 ± 0.67.

On to “AAAGGGGATATATGAACACACAAAAAAAAAATATAT [CACACA_site2896]”, for which the “gcPBM binding intensity (ln)” value stood at 8.02 ± 0.61.
